In PubChem BioAssay AID624296 (National Center for Advancing Translational Sciences (NCATS), 2012):
Out of some 350,000 compounds screened, about 9,900 (2.8%) were called active. Inconclusive means that the source gave no clear call. Such entries were picked first, then a sample of the others. The call rests on the fitted dose curve; in most records, active means well fitted activation curve with a large enough effect; inconclusive means small, poorly fitted or top-dose-only effect; inactive means no such curve, though single readings can be large or run the other way. No potency is given beside an inconclusive call; the fits are too rough.

Test: A quantitative high throughput screen for small molecules that induce DNA re-replication in MCF 10a normal breast cells. Further: nearly all actives have a fitted effect of over 50% in size. On activity, positive = re-replication: % of control where 0% means no effect.
Settings: MCF 10A DNA re-replication, Hoechst nuclear intensity, 48 h; activity, positive = re-replication: at 46.1 µM (top of the series)
Potency means the concentration at half of the fitted maximal effect; tags describe the fitted curve by direction and shape.

| SMILES | Potency | activity, positive = re-replication |
| --- | --- | --- |
| O=C(CC(O)c1ccncc1)c1ccccc1O (stereo unspecified) | inconclusive [activator, single point] | – |
| COc1cc(C(Nc2ccccn2)c2ccc3ccc(C)nc3c2O)cc(OC)c1O (stereo unspecified) | active: 13 µM | – |
| CCOc1ccc(N(CC(=O)NC2CC2)S(=O)(=O)c2ccc(C)cc2)cc1 | inconclusive [activator, single point] | – |
| Cc1cccc(NC(=O)c2ccc(C3SCC(=O)N3CCc3ccccc3)cc2)c1C (stereo unspecified) | inconclusive [activator, partial curve, poor fit] | – |
| CS(=O)(=O)N(CC(=O)Nc1ccccc1C(=O)NCc1ccco1)c1ccc2c(c1)OCCO2 | inconclusive [activator, single point] | – |
| Cc1ccc(NC(=O)C2=NNC(=O)CC2)cc1F | inconclusive [activator, single point] | – |
| Cc1sc2nc(CSc3ccccc3)nc(N3CCN(C)CC3)c2c1C | – | inactive: 13.6% |
| C=CCNC(=O)C1CC1(c1ccc(C)cc1)c1ccc(C)cc1 (stereo unspecified) | inconclusive [activator, single point] | – |
| CC(C)(C)[C@H]1COC(=O)[C@@H](Cc2ccc(F)cc2)C/C=C\C[C@@H](CC(=O)N[C@@H](CO)Cc2ccccc2)C(=O)N1 | – | inactive: -9.31% |
| COc1ccc(-c2nn(-c3ccccc3)cc2C(=O)N/N=C/c2ccc([N+](=O)[O-])o2)cc1 | inconclusive [activator, full curve, poor fit] | – |
| O=C(NCC(=O)N(Cc1ccco1)C(C(=O)NC1CCCC1)c1cccnc1)c1cccs1 (stereo unspecified) | inconclusive [activator, partial curve, poor fit] | – |
| COC(=O)c1ccccc1NC(=O)c1ccc(F)cc1 | – | inactive: -5.03% |
| CC(C)(C)c1csc(NC(=O)Cn2c(=O)oc3ccccc32)n1 | – | inactive: 7.39% |
| CCCCCc1ccc(OCCCC[n+]2ccccc2)c(CCCCC)c1 | active: 23.1 µM | – |
| COc1cc(Nc2nc3ccccc3n3nnnc23)cc(OC)c1OC | active: 29.1 µM | – |
| CCCCN(CCCC)c1cc(C)nc(-c2ccccc2O)n1 | inconclusive [activator, single point] | – |
| Cc1nnc(SC(C)C(=O)Nc2ccc(N3CCOCC3)cc2)n1Cc1ccccc1 (stereo unspecified) | inconclusive [activator, partial curve, poor fit] | – |
| COc1ccccc1/C=C/C(=O)Nc1cccc(S(=O)(=O)NC2=NCCCCC2)c1 | – | inactive: 3.7% |
| CC(=O)Nc1cccc(C(=O)OC(C)C(=O)NCc2ccc3c(c2)OCO3)c1 (stereo unspecified) | – | inactive: 2.17% |
| S=C(NCCC(c1ccccc1)c1ccccc1)Nc1ccccc1Cl | inconclusive [activator, single point] | – |
| Cc1ccccc1C(=O)Nc1nnc(-c2cccnc2)o1 | – | inactive: 9.71% |
| COc1nc(C)cc(C)c1S(=O)(=O)c1ccccc1C | – | inactive: 0.112% |
| COc1ccc(OC)c(N(CC(=O)N2CCCC2)S(=O)(=O)c2ccc(OC)c(OC)c2)c1 | inconclusive [activator, partial curve, poor fit] | – |

| SMILES | Potency | activity, positive = re-replication |
| --- | --- | --- |
| CCCCn1cnc2c(SCc3cccc(F)c3)nc(N)nc21 | – | inactive: -32.7% |
| COc1cc(/C=N/NC(=O)Nc2ccccc2)ccc1OCCOc1ccccc1C | active: 1.16 µM | – |
| Cc1ccc(-c2ccc(OCC(=O)N3CCOCC3)cc2)cc1 | inconclusive [activator, single point] | – |
| C/C(CC(=O)Nc1ccc(Cl)c(C(F)(F)F)c1)=N\NC(=O)c1cccc(O)c1 | – | inactive: -0.076% |
| COc1cc2c(cc1OC)CN(C(=O)c1ccc(Br)o1)CC2 | – | inactive: 0.674% |
| CCOc1ccc(S(=O)(=O)N2CCCCC2)cc1NC(=O)C1CSC2(C)CCC(=O)N12 (stereo unspecified) | inconclusive [activator, partial curve, poor fit] | – |
| Clc1ccc(OCCCc2nc(-c3cccnc3)no2)c(Cl)c1 | inconclusive [activator, single point] | – |
| Cc1ccc(N(C)S(=O)(=O)c2ccc3c(c2)NC(=O)C(C)S3)cc1 (stereo unspecified) | inconclusive [activator, partial curve, poor fit] | – |
| CCOc1ccc(C(=O)CSc2nnc(C3CC3)n2C)cc1 | inconclusive [activator, single point] | – |
| COc1cccc(N2CCN(S(=O)(=O)c3cccc4nsnc34)CC2)c1 | – | inactive: -1.54% |
| CCCCN1C2=C(C(=O)CC(C)(C)C2)C(c2ccccc2)C2=C1c1ccccc1C2=O (stereo unspecified) | inconclusive [activator, partial curve, poor fit] | – |
| O=C(NC(=S)NN1CCOCC1)c1cc(Br)ccc1Cl | inconclusive [activator, single point] | – |
| CCCC(CCC)=NNc1ccc(S(=O)(=O)Nc2ccccc2OC)cc1[N+](=O)[O-] | inconclusive [activator, single point] | – |
| C#CCOCCOCCOCCNc1nc(N2CCN(C(=O)Cn3cc(CC(C)O)nn3)CC2)nc(N2CCN(C(=O)[C@H](CCCCN)n3cc(CC(C)O)nn3)CC2)n1 (stereo partly specified) | – | inactive: 24.1% |
| COC(=O)c1c(NC(=O)/C=C/C(=O)O)sc(Cc2ccccc2)c1C | active: 14.6 µM | – |
| CC(C)Sc1nc(N2CCOCC2)c2c(c1C#N)CC(C)(C)SC2 | inconclusive [activator, partial curve] | – |
| O=C1/C(=C/c2cccc([N+](=O)[O-])c2)CSc2ccc(Cl)cc21 | – | inactive: -6.87% |
| Cc1cc(C)c(C)c(S(=O)(=O)N2CCN(CC(=O)NC(=O)NCc3ccccc3)CC2)c1C | – | inactive: 10.9% |
| CCN1C(=O)CC(N2CCN(c3ccc(C(=O)c4ccncc4)cc3)CC2)C1=O (stereo unspecified) | – | inactive: -5.88% |
| CCNC(=S)NNC(=O)CSc1nc2ccccc2n1C | – | inactive: 0.537% |
| CCOc1ccc(-c2c(C(=O)N/N=C/c3cccc(Br)c3)nnn2-c2nonc2N)cc1 | inconclusive [activator, single point] | – |
| CC1CC(C)(C)NC(=S)N1CC(=O)NCc1ccc(Cl)cc1 (stereo unspecified) | – | inactive: -2.18% |
| CCC(C)Oc1ccc(C(=O)Nc2ccc(CN3CCOCC3)cc2)cc1 (stereo unspecified) | inconclusive [activator, partial curve, poor fit] | – |
